# Results: paper PMC12136788
# This is one part of the list.
# T1: UNK ZnF1-3 (human, UniProt Q9C0B0 31-174)
# T1 sequence: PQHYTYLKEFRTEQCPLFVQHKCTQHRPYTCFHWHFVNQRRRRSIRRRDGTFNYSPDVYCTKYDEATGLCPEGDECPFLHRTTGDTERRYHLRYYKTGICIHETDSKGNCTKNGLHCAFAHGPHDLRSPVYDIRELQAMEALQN
# B1: chr9:131455196:131455197:+_ENSG00000119335_ENST00000372688|hu_hu|FALSE|FALSE (ssRNA)
# RNA: GGGAGUUCUACAGUCCGACGAUCAAAUUCUUUGGAGAGAACUUUAUUUUCAAAGUAAGGAUUUUCAUCAAAAUAAAAAUCUAUUCUGUAACCUGAUUUAAUAUCUUCAAAUUCUGUCACUUCAACUCUGGUCAAAUAAUGCAGCAACAGAGGAUUGAGCAUCA
# B2: 115922778_115922898_456_CDS_ENSG00000165813_ENST00000369287|human|control|control (ssRNA)
# RNA: GGGAGUUCUACAGUCCGACGAUCUGUUUUGGCACAAGAAUCCUCACCUCCACCAUGAUCUGGAAUAUAAUUUUCCUGGGCUUCAAUUCGAUUAUUAUGCUCAUUAGGUUGACAUAAAGUUUUAUCAGUGUUUAAUGACAAUAGCAACAGAGGAUUGAGCAUCA
# B3: chr4:97781865:97781866:+_ENSMUSG00000028565_ENSMUST00000075448|mus_mus|FALSE|FALSE (ssRNA)
# RNA: GGGAGUUCUACAGUCCGACGAUCUUGACCUAAACUGCCUUGGUCGGUGUUGCAUUUGCUUCCUGCUUGAUGACAACGGAACUACAAUUUCCUGCUGCUUUCUGGACAAUGAAGCAUGAGCAGACCAGAACUUGGUGUACUGACCAACAGAGGAUUGAGCAUCA
# B4: 31253383_31253503_2257_3pUTR_ENSMUSG00000047714_ENSMUST00000060188|mouse|control|control (ssRNA)
# RNA: GGGAGUUCUACAGUCCGACGAUCAAUAAAAGCCAUUUCAUAUAUAUAAUAUACAGAAAUUAUUUUAAAAGUCUGUCAUAUAACAGAUUCAUUUGGUGCUACCAAAAACUUACGAUACAAAUAAACAACUACAAAGGGAACCAUCAACAGAGGAUUGAGCAUCA
# B5: 24911413_24911533_639_3pUTR_ENSMUSG00000006476_ENSMUST00000102931|mouse|control|control (ssRNA)
# RNA: GGGAGUUCUACAGUCCGACGAUCCUGGGCACUCUUUGGAGCCCUGGCGGCUUCCUGCCCAGCUUUGGCAGGGCCUGCUGAUGUCCUCCCGGCUGCUGCCUGGGCUGGCACGCAGGGGCUGGCUGUGGUGGUGAGGGUGCCGUUCAACAGAGGAUUGAGCAUCA
# B6: chr8:133025090:133025091:+_ENSG00000132294_ENST00000254624|hu_hu|motif|central (ssRNA)
# RNA: GGGAGUUCUACAGUCCGACGAUCAUAAACAUUAAUUGUAAUGGUUUUCCUUUACAUGCAAUACAUGCAUUUUAAAAUCACGGAGAAACACGAAAUUUUGUAGAGCAAAGUUUGUGUUUCACGUAAGUGCAAAUGAAUAUAUAUCAACAGAGGAUUGAGCAUCA
# B7: chr1:54681892:54681893:+_ENSG00000116221_ENST00000360840|hu_hu|FALSE|FALSE (ssRNA)
# RNA: GGGAGUUCUACAGUCCGACGAUCCCAGGCCAAAUUCUUGACACCCUCGUUACAGUCCAGGUCUGUGGUAUUCAGUUGAAACACUAGGAAAUGGAAGACACGUCCAUCCGUGCCCACGCUCUGCACCACCACGGGCUGCUCCAACAACAGAGGAUUGAGCAUCA
# B8: chr6:30403744:30403745:+_ENSMUSG00000029775_ENSMUST00000068259|mus_hu|motif|central (ssRNA)
# RNA: GGGAGUUCUACAGUCCGACGAUCUAGGAAAGUUGAUUCACUGAUUAUCUAUGGAUUUCAAUGAUCUGUGCUUUACUCUUGCGGCUGUGGAUAACCAAAGGUCACUGUUAACGUAUCUUUUGCUUAAAAAUGUUAAUAUGCUUACAACAGAGGAUUGAGCAUCA
# B9: chr1:100342015:100342016:+_ENSG00000162688_ENST00000361915|hu_hu|FALSE|FALSE (ssRNA)
# RNA: GGGAGUUCUACAGUCCGACGAUCAGAUUCUUCCAUGGAGAAGUCUAUCUCUUCAAAUGGGAAAGUAAAAUACCUGGUAACUAAAGGAUGCUUUCUAGUGACAGGUCCUAGUUUUGGACCAUGGCCAGCCAGUCGUUCAUAAAACAACAGAGGAUUGAGCAUCA
# B10: chr12:95365269:95365270:-_ENSG00000184752_ENST00000327772|hu_hu|FALSE|FALSE (ssRNA)
# RNA: GGGAGUUCUACAGUCCGACGAUCUCAUUGUCUUUACUUGUAAGGUGUUGAAGGUGGGAUCCACUCCUGAAUCUUCUUUCUAGUGGUAGAAUAAGGUACAUAUUGUUCUGGGGUGCCAGUCACGUUGAAUUUAUGGUUCGUCCACAACAGAGGAUUGAGCAUCA
# B11: chr5:138643207:138643208:+_ENSG00000015479_ENST00000510056|hu_hu|FALSE|FALSE (ssRNA)
# RNA: GGGAGUUCUACAGUCCGACGAUCCAUCCUUCCAAGAGAUGCUGGCAUACUUAAAGACUGGGUAGCAGCAGCAAGAAGGCCUAUUCCUGCCGCAGACAGGUCACGCCCAUGACCCUGUGAGUCCCUACUGAGAGAUGACUGCUGCAACAGAGGAUUGAGCAUCA
# B12: chr6:29325759:29325760:+_ENSMUSG00000029767_ENSMUST00000031779|mus_mus|motif|central (ssRNA)
# RNA: GGGAGUUCUACAGUCCGACGAUCAGAUGAGAAAACGGCUCAAGUGGUCCUCAAACCAAGAGCCCCCUCUGUACAUCCUUCGGUCCUUGAGGCAAAGCUCAAGCCCUGGUGAGCAGAGGCCUGGGAGAAGAGUGGUUUGCCUUCCAACAGAGGAUUGAGCAUCA
# B13: 196581395_196581515_1956_CDS_ENSG00000196950_ENST00000359634|human|control|control (ssRNA)
# RNA: GGGAGUUCUACAGUCCGACGAUCAUGAAUGGUAUGUAAUCCAUCACUGUGAGAAUGGUCUAUGAUUUUCUCCUCUUCUAUACAAAGGUAAUUUUUAGGAGGGGAUUCUUGUUGGCCUUCUAAAUCUGUCAGUUCAGUUUCAUUCAACAGAGGAUUGAGCAUCA
# B14: chr17:57737884:57737885:+_ENSG00000141367_ENST00000269122|hu_hu|motif|central (ssRNA)
# RNA: GGGAGUUCUACAGUCCGACGAUCAUUUCCCUGGGCAAAAAGAGCAUUAAAUUUCCGGGCAAAGAGUUCUUCAGCACCGGCGGAGUUAUUACGUACAGCCAUUCUCAGAGCCAAAUCAGGAUUUUGUAGAACAUUGGUGAUGUACAACAGAGGAUUGAGCAUCA
# B15: chr12:46623017:46623018:-_ENSG00000111371_ENST00000398637|hu_mus|FALSE|FALSE (ssRNA)
# RNA: GGGAGUUCUACAGUCCGACGAUCAAGGCCCAAGAUUCCACUGCCCAUGAUGGCGUUGCUCAGGUUAAAGACAGACAUUCCCAGGGAGGUUGUUCCUGGAAUAUACUCGUCGCAUUUCCUUUUCUCCAGAUGGCUGUUUGUGAGCAACAGAGGAUUGAGCAUCA
# B16: 37438484_37438604_3191_3pUTR_ENSMUSG00000026915_ENSMUST00000028279|mouse|control|control (ssRNA)
# RNA: GGGAGUUCUACAGUCCGACGAUCGACAAUCAGAGAGCGAGUUUUUAUGGGGAUCCUGUUGCUGCUUUAGAUUCUGAUAUCAAAGAAGAGGAAAGGAGACUCUUCAAGGAAUUCCAAAAAAAAAAAAAAACCUGCUAAUCAUCUCAACAGAGGAUUGAGCAUCA
# B17: chr17:57759754:57759755:+_ENSG00000141367_ENST00000269122|hu_hu|motif|central (ssRNA)
# RNA: GGGAGUUCUACAGUCCGACGAUCAUCAUAACAACGGUCACCAACUUGUUGGAUAUGAGCAUUAUUUGGUCCAUUGAUAAAUUCUUCGGACUCUGCAAGGCGGUUUGUUUUAGCCAGUGCGAAUAUCAGUUCUGUCUCCACAUACAACAGAGGAUUGAGCAUCA
# B18: chr5:147795600:147795601:+_ENSG00000145868_ENST00000340253|hu_mus|FALSE|FALSE (ssRNA)
# RNA: GGGAGUUCUACAGUCCGACGAUCACUCAGACCAACUCGAGCACAGCCCUUGGGUGGCUCACGGAACAUCUGGUCCAGAGAAAUAAAUUCCAGGCUGGGCAAUAAUUCAACAAACUGGCCAAAAGAAUCCAGCUUCAAAGCAUGCAACAGAGGAUUGAGCAUCA
# B19: chr14:78894897:78894898:-_ENSMUSG00000022016_ENSMUST00000123853|mus_hu|FALSE|FALSE (ssRNA)
# RNA: GGGAGUUCUACAGUCCGACGAUCUUUAAAUUUUAACAGUGGGUUUCUAAAAAGAAAACAGUAAAAUAAAAGAGGGAACAAACUGGCAAGGUUAAAGUACUCCCUUACACACACACACACACACACACACACACACACACACACCAACAGAGGAUUGAGCAUCA
# B20: 153456635_153456755_558_3pUTR_ENSG00000109670_ENST00000281708|human|control|control (ssRNA)
# RNA: GGGAGUUCUACAGUCCGACGAUCCCGCCCCCCCGGCCGGGGGGUGGUUGCCGAGCUUGGUUGGGGCCCCGGUUCAUACACUCCGGGGCAAGAUGCUACGGCCCCGGGCGGGUGGCCGAGUCGGCGGCAAGGCGAGGGACCCGGCAACAGAGGAUUGAGCAUCA
# B21: chr6:38652254:38652255:-_ENSG00000124767_ENST00000373365|hu_hu|hu_hu_hu_mus_False|18_58 (ssRNA)
# RNA: GGGAGUUCUACAGUCCGACGAUCCGAGAACUUCAUAGCAGGGAAGUCAAGCUUCUGCAGGAGGGUCAGUCCAAGAACUCUAGUAUAAAAAUCCAGGGACUUCUUAGGAUCCUUAAUUCGUAGCAUGGUUUGCUGCAGUAGAAACAACAGAGGAUUGAGCAUCA
# B22: 46966873_46967914_508_3pUTR_ENSMUSG00000036568_ENSMUST00000040624|mouse|control|control (ssRNA)
# RNA: GGGAGUUCUACAGUCCGACGAUCAAAAUUGAAUUAGAAUUGGCUGCAGAAUACCCUGCGUUCGUCACAUCAUCGCUGCCCGAUUUACUGCUAGGUCCGUGCAGAAAAUAGUUCAAUGCUUGUGGGUCUCCAAUAAGAUCGAGGCAACAGAGGAUUGAGCAUCA
# Molecular target: T1, UNK ZnF1-3
# Assay: nsRBNS (natural sequence RNA bind-n-seq); RBNS binding buffer (assumed for nsRBNS): 25 mM Tris pH 7.5, 150 mM KCl, 3 mM MgCl2, 0.01% Triton X-100, 500 ug/ml BSA, 20 U/ml SUPERase-In, 4 C; UNK is unkempt and MSI1 is Musashi-1; names of the RNAs are library labels; protein concentration not given here; high values mean tight binding
row,Binder,binding signal
1,B1,0.759 enrichment R
2,B2,0.915 enrichment R
3,B3,0.821 enrichment R
4,B4,1.74 enrichment R
5,B5,0.405 enrichment R
6,B6,0.295 enrichment R
7,B7,1.11 enrichment R
8,B8,0.858 enrichment R
9,B9,1.21 enrichment R
10,B10,0.825 enrichment R
11,B11,0.853 enrichment R
12,B12,0.652 enrichment R
13,B13,0.514 enrichment R
14,B14,1.88 enrichment R
15,B15,1.04 enrichment R
16,B16,3.02 enrichment R
17,B17,1.27 enrichment R
18,B18,0.863 enrichment R
19,B19,2.55 enrichment R
20,B20,0.557 enrichment R
21,B21,0.907 enrichment R
22,B22,1.21 enrichment R
